Measured values from the supplement of paper PMC12217912.
Some of the results follow. Sequences were assembled here from the parent chain. Inactive controls read about 0.05.

B1: TEV protease; numbered along this chain (parent)
chain: MGESLFKGPRDYNPISSSICHLTNESDGHTTSLYGIGFGPFIITNKHLFRRNNGTLVVQSLHGVFKVKDTTTLQQHLVDGRDMIIIRMPKDFPPFPQKLKFREPQREERICLVTTNFQTKSMSSMVSDTSCTFPSGDGIFWKHWIQTKDGQCGSPLVSTRDGFIVGIHSASNFTNTNNYFTSVPKNFMELLTNQEAQQWVSGWRLNADSVLWGGHKVFMVKPEEPFQPVKEATQL

Variants of: B1
Test: raw area under fraction-flipped curve 0-4 h after induction (AUC4h, not background-subtracted), DNA-recorder readout of cleavage of the substrate (dimensionless); higher = more cleavage of the substrate by the protease variant
Conditions: temperature: 34 °C; time window: 0-4 h after rhamnose induction
Method: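 In vivo DNA recorder in E. coli TOP10(DE3) ΔrhaA at 34 °C. Each TEVp single-site mutant (parent TEVp 0) is paired with a single-site variant of the 7-mer TEVs (canonical ENLYFQ|S). The substrate sits between flexible linkers in a Bxb1-sfGFP-TEVs-SsrA fusion, so cleavage stabilises Bxb1 and speeds flipping of a recombination array, read by NGS. The value is the raw area under the fraction-flipped curve over 0-4 h after rhamnose induction (AUC4h), with ≥20 reads per time point. It is not background-subtracted; inactive controls average about 0.047.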
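Note: Bxb1 expression induced with 0.2% (w/v) L-rhamnose at OD600 near 0.5, cultures sampled hourly, flipped fraction per protease–substrate barcode pair counted by paired-end Illumina sequencing.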

Variant | area with substrate ANLYFQS | area with substrate CNLYFQS | area with substrate DNLYFQS | area with substrate FNLYFQS | area with substrate GNLYFQS | area with substrate HNLYFQS | area with substrate INLYFQS | area with substrate KNLYFQS | area with substrate LNLYFQS | area with substrate MNLYFQS | area with substrate PNLYFQS | area with substrate QNLYFQS | area with substrate SNLYFQS | area with substrate VNLYFQS | area with substrate WNLYFQS | area with substrate YNLYFQS | area with substrate TNLYFQS | area with substrate NNLYFQS | area with substrate RNLYFQS
MGESLFKGPRDYNPISSSICHLTNESDGHTTSLYGIGFGPFIITNKHLFRRNNGTLVVQSGHGVFKVKDTTTLQQHLVDGRDMIIIRMPKDFPPFPQKLKFREPQREERICLVTTNFQTKSMSSMVSDTSCTFPSGDGIFWKHWIQTKDGQCGSPLVSTRDGFIVGIHSASNFTNTNNYFTSVPKNFMELLTNQEAQQWVSGWRLNADSVLWGGHKVFMVKPEEPFQPVKEATQL [L61G] | 0.0598 | 0.0583 | 0.0661 | 0.0717 | 0.0736 | 0.0524 | 0.0639 | 0.0597 | 0.0808 | 0.0618 | 0.0694 | 0.0712 | 0.0708 | 0.0767 | 0.0485 | 0.0801 |  |  | 
MGESLFKGPRDYNPISSSICHLTNESDGHTTSLYGIGFGPFIITNKHLFRRNNGTLVVQSLHGVFKVKDTTTLQQHLVDGTDMIIIRMPKDFPPFPQKLKFREPQREERICLVTTNFQTKSMSSMVSDTSCTFPSGDGIFWKHWIQTKDGQCGSPLVSTRDGFIVGIHSASNFTNTNNYFTSVPKNFMELLTNQEAQQWVSGWRLNADSVLWGGHKVFMVKPEEPFQPVKEATQL [R81T] | 0.0451 | 0.0641 | 0.0616 | 0.0379 | 0.0674 |  | 0.054 | 0.0674 | 0.0679 | 0.0608 | 0.0639 |  | 0.0608 |  | 0.0581 | 0.0574 | 0.0534 |  | 
MGESLFKGPRDYNPISSSICHLTNESDGHTTSLYGIGFGPFIITNKHLFRRNNGTLVVQSLHGVFKVKDTTTLQQHLVDGNDMIIIRMPKDFPPFPQKLKFREPQREERICLVTTNFQTKSMSSMVSDTSCTFPSGDGIFWKHWIQTKDGQCGSPLVSTRDGFIVGIHSASNFTNTNNYFTSVPKNFMELLTNQEAQQWVSGWRLNADSVLWGGHKVFMVKPEEPFQPVKEATQL [R81N] | 0.0764 | 0.0611 | 0.0695 |  |  | 0.0863 | 0.0509 | 0.0617 |  |  | 0.0649 |  |  |  |  |  | 0.0491 | 0.069 | 
MGESLFKGPRDYNPISSSICHLTNESDGHTTSLYGIGFGPFIITNKHLFRRNNGTLVVQSLHGVFKVKDTTTLQQHLVDGRDMIIIRMPKDFSPFPQKLKFREPQREERICLVTTNFQTKSMSSMVSDTSCTFPSGDGIFWKHWIQTKDGQCGSPLVSTRDGFIVGIHSASNFTNTNNYFTSVPKNFMELLTNQEAQQWVSGWRLNADSVLWGGHKVFMVKPEEPFQPVKEATQL [P93S] | 0.0501 | 0.0519 | 0.0567 |  | 0.088 | 0.0662 |  | 0.0671 | 0.0545 |  | 0.0469 |  |  | 0.0676 | 0.0663 |  | 0.0525 | 0.0619 | 
MGESLFKGPRDYNPISSSICHLTNESDGHTTSLYGIGFGPFIITNKHLFRRNNGTLVVQSLHGVFKVKDTTTLQQHLVDGRDMIIIRYPKDFPPFPQKLKFREPQREERICLVTTNFQTKSMSSMVSDTSCTFPSGDGIFWKHWIQTKDGQCGSPLVSTRDGFIVGIHSASNFTNTNNYFTSVPKNFMELLTNQEAQQWVSGWRLNADSVLWGGHKVFMVKPEEPFQPVKEATQL [M88Y] | 0.0505 | 0.0517 |  |  |  |  |  |  | 0.051 | 0.0298 | 0.0371 |  |  | 0.0605 |  |  |  | 0.0393 | 
MGESLFKGPRDYNPISSSICHLTNESDGHTTSLYGIGFGPFIITNKHLFRRNNGTLVVQSLHGVFKVKDTTTLQQHLVDGRDMIIIRGPKDFPPFPQKLKFREPQREERICLVTTNFQTKSMSSMVSDTSCTFPSGDGIFWKHWIQTKDGQCGSPLVSTRDGFIVGIHSASNFTNTNNYFTSVPKNFMELLTNQEAQQWVSGWRLNADSVLWGGHKVFMVKPEEPFQPVKEATQL [M88G] | 0.0416 |  | 0.0634 | 0.0427 |  | 0.0459 | 0.0438 |  | 0.0418 | 0.056 | 0.0479 |  |  | 0.0498 |  |  |  | 0.0394 | 
MGESLFKGPRDYNPISSSICHLTNESDGHTTSLYGIGFGPFIITNKHLFRRNNGTLVVQSLHGVFKVKDTTTLQQHLVDGRDMIIIREPKDFPPFPQKLKFREPQREERICLVTTNFQTKSMSSMVSDTSCTFPSGDGIFWKHWIQTKDGQCGSPLVSTRDGFIVGIHSASNFTNTNNYFTSVPKNFMELLTNQEAQQWVSGWRLNADSVLWGGHKVFMVKPEEPFQPVKEATQL [M88E] | 0.028 | 0.0403 | 0.0779 | 0.0622 | 0.0655 | 0.0494 | 0.0617 | 0.0504 | 0.0305 | 0.0455 | 0.0442 |  | 0.0478 |  | 0.0554 |  | 0.0538 |  | 
MGESLFKGPRDYNPISSSICHLTNESDGHTTSLYGIGFGPFIITNKHLFRRNNGTLVVQSLHGVFKVKDTTTLQQHLVDGRDMIIIRWPKDFPPFPQKLKFREPQREERICLVTTNFQTKSMSSMVSDTSCTFPSGDGIFWKHWIQTKDGQCGSPLVSTRDGFIVGIHSASNFTNTNNYFTSVPKNFMELLTNQEAQQWVSGWRLNADSVLWGGHKVFMVKPEEPFQPVKEATQL [M88W] | 0.054 | 0.0403 | 0.0694 |  | 0.0664 | 0.0532 |  | 0.0447 |  | 0.0516 | 0.0482 | 0.0647 |  | 0.0564 | 0.0232 |  | 0.052 | 0.0514 | 
MGESLFKGPRDYNPISSSICHLTNESDGHTTSLYGIGFGPFIITNKHLFRRNNGTLVVQSLHGVFKVKDTTTLQPHLVDGRDMIIIRMPKDFPPFPQKLKFREPQREERICLVTTNFQTKSMSSMVSDTSCTFPSGDGIFWKHWIQTKDGQCGSPLVSTRDGFIVGIHSASNFTNTNNYFTSVPKNFMELLTNQEAQQWVSGWRLNADSVLWGGHKVFMVKPEEPFQPVKEATQL [Q75P] | 0.022 | 0.0597 | 0.0679 | 0.0606 | 0.0513 | 0.0628 | 0.0562 | 0.0666 | 0.0628 |  | 0.0491 |  |  |  | 0.0603 | 0.0569 | 0.0611 | 0.0571 | 0.055
